Among the data in the supplement of paper PMC4967469 are AUC and IC50 values, retold here.

By IC50 is meant the dose at which the fit gives 50% viability; fits outside the tested doses are given as limits. AUC, from the same fit, is the share of area under the viability curve across the 256-fold dose range; it is 1 without any effect and falls as sensitivity rises. The top dose, if marked as inferred, was calculated from the reported fits.

Compound in the assay: N.N.[Cl][Pt][Cl] [Cisplatin]
As to the kind of experiment: Viability of human cancer cell lines after 72 h of drug (GDSC screen). The following applies: top dose inferred. Here is the method: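 Human cancer cell lines in 384-well plates, medium with 10% serum, drug for 72 h over a 256-fold dose range (nine 2-fold or five 4-fold steps up to the top dose). Adherent lines were fixed and stained with the nucleic acid dye Syto60, suspension lines read with resazurin; signal relative to control wells, capped at 0 and 100%. One two-parameter sigmoid per drug and line, fitted in a mixed model over all curves with the slope shared within a line.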
As to “DIFI (large intestine, adherent, top dose 10 µM)”, the AUC came to 0.944 and the IC50 – broadly, the concentration at which inhibition is half-maximal – is more than 10 µM.

On to DJM-1 (skin, adherent, top dose 10 µM), for which the AUC is 0.953 and the IC50 is more than 10 µM.

“DK-MG (glioma, adherent, top dose 10 µM)”: the AUC stood at 0.924 and the IC50 is more than 10 µM.

Regarding “DMS-53 (small cell lung carcinoma, adherent, top dose 10 µM)”, the AUC worked out at 0.986 and the IC50 is more than 10 µM.

In the case of “DMS-79 (small cell lung carcinoma, suspension, top dose 10 µM)”, the AUC was determined as 0.912 and the IC50 is more than 10 µM.

“DMS-114 (small cell lung carcinoma, adherent, top dose 10 µM)”: the AUC turned out to be 0.895 and the IC50 was more than 10 µM.

As for “DMS-273 (small cell lung carcinoma, adherent, top dose 10 µM)”, the AUC is 0.863 and the IC50 was determined as 9.48 µM.

On to “DND-41 (T-cell leukaemia, suspension, top dose 10 µM)”, for which the AUC was 0.941 and the IC50 is more than 10 µM.

On to “DOHH-2 (B-cell lymphoma, suspension, top dose 10 µM)”, for which the AUC came to 0.774 and the IC50 stood at 3.83 µM.

Take “DOK (head and neck, adherent, top dose 10 µM)”: the AUC was found to be 0.89 and the 50% inhibitory concentration (IC50) is more than 10 µM.

As to DOV13 (ovary, adherent, top dose 10 µM), the AUC was 0.881 and the IC50 is more than 10 µM.

For the cell line “DSH1 (bladder, adherent, top dose 10 µM)”, the AUC was determined as 0.97 and the IC50 is more than 10 µM.

Consider “DU-145 (prostate, adherent, top dose 10 µM)”, for which the AUC was found to be 0.875 and the IC50 is more than 10 µM.

On to “DU-4475 (breast, suspension, top dose 10 µM)”, for which the AUC turned out to be 0.932 and the IC50 was more than 10 µM.

Regarding “Daoy (medulloblastoma, adherent, top dose 10 µM)”, the AUC worked out at 0.669 and the IC50 amounted to 1.75 µM.

For “Daudi (Burkitt lymphoma, suspension, top dose 10 µM)”, the AUC is 0.975 and the IC50 was more than 10 µM.

As to “Detroit562 (head and neck, adherent, top dose 10 µM)”, the AUC came out at 0.941 and the concentration for half-maximal inhibition (IC50) is more than 10 µM.

Take “DoTc2-4510 (cervix, adherent, top dose 10 µM)”: the AUC came to 0.879 and the IC50 amounted to 9.3 µM.

Take “EB2 (Burkitt lymphoma, suspension, top dose 10 µM)”: the AUC is 0.926 and the IC50 was more than 10 µM.

“EB-3 (Burkitt lymphoma, suspension, top dose 10 µM)”: the AUC was determined as 0.978 and the IC50 was more than 10 µM.

As to “EBC-1 (lung squamous cell carcinoma, adherent, top dose 10 µM)”, the AUC worked out at 0.932 and the IC50 is more than 10 µM.

For “EC-GI-10 (oesophagus, adherent, top dose 10 µM)”, the AUC is 0.906 and the IC50 was more than 10 µM.

Consider “ECC10 (stomach, suspension, top dose 10 µM)”, for which the AUC was 0.934 and the IC50 was more than 10 µM.

As for “EFM-19 (breast, adherent, top dose 10 µM)”, the AUC amounted to 0.955 and the IC50 was more than 10 µM.

In the case of “EFM-192A (breast, adherent, top dose 10 µM)”, the AUC came to 0.963 and the IC50 was more than 10 µM.

Take “EFO-21 (ovary, adherent, top dose 10 µM)”: the AUC is 0.953 and the IC50 is more than 10 µM.

As for “EFO-27 (ovary, adherent, top dose 10 µM)”, the AUC came to 0.891 and the IC50 was more than 10 µM.

Consider “EGI-1 (biliary tract, adherent, top dose 10 µM)”, for which the AUC worked out at 0.841 and the IC50 was more than 10 µM.

Consider “EHEB (lymphoid neoplasm, suspension, top dose 6 µM)”, for which the AUC stood at 0.922 and the IC50 was more than 6 µM.

As for “EJM (lymphoid neoplasm, semi-adherent, top dose 10 µM)”, the AUC was 0.988 and the half-maximal inhibitory concentration (IC50) was more than 10 µM.

For the cell line “EKVX (lung adenocarcinoma, adherent, top dose 10 µM)”, the AUC came to 0.962 and the IC50 was more than 10 µM.

Regarding “EM-2 (chronic myeloid leukaemia, suspension, top dose 10 µM)”, the AUC is 0.954 and the IC50 is more than 10 µM.

On to “EMC-BAC-1 (lung adenocarcinoma, adherent, top dose 10 µM)”, for which the AUC is 0.906 and the IC50 is more than 10 µM.

Take “EMC-BAC-2 (lung adenocarcinoma, adherent, top dose 10 µM)”: the AUC amounted to 0.84 and the IC50 is 8.81 µM.

As to “EN (endometrium, adherent, top dose 10 µM)”, the AUC stood at 0.917 and the IC50 was more than 10 µM.

In the case of “EPLC-272H (lung squamous cell carcinoma, adherent, top dose 10 µM)”, the AUC worked out at 0.898 and the IC50 is more than 10 µM.

In the case of “ES1 (Ewing sarcoma, adherent, top dose 10 µM)”, the AUC was found to be 0.807 and the IC50 was found to be 5.02 µM.

On to “ES4 (Ewing sarcoma, adherent, top dose 10 µM)”, for which the AUC is 0.661 and the IC50 amounted to 1.88 µM.

As to “ES5 (Ewing sarcoma, adherent, top dose 10 µM)”, the AUC is 0.728 and the IC50 turned out to be 3.1 µM.

“ES6 (Ewing sarcoma, adherent, top dose 10 µM)”: the AUC is 0.867 and the IC50 was more than 10 µM.

Regarding “ES7 (Ewing sarcoma, adherent, top dose 10 µM)”, the AUC came to 0.705 and the IC50 was determined as 2.4 µM.

For “ES8 (Ewing sarcoma, adherent, top dose 10 µM)”, the AUC is 0.794 and the IC50 came to 4.23 µM.

On to ES-2 (ovary, adherent, top dose 10 µM), for which the AUC stood at 0.881 and the IC50 was found to be 8.28 µM.

In the case of “ESO26 (oesophagus, adherent, top dose 10 µM)”, the AUC amounted to 0.891 and the IC50 is more than 10 µM.

“ESO51 (oesophagus, semi-adherent, top dose 10 µM)”: the AUC was 0.971 and the IC50 was more than 10 µM.

Regarding “ESS-1 (endometrium, adherent, top dose 10 µM)”, the AUC turned out to be 0.743 and the IC50 turned out to be 2.83 µM.

For “ETK-1 (biliary tract, adherent, top dose 10 µM)”, the AUC turned out to be 0.939 and the IC50 was more than 10 µM.

In the case of “EVSA-T (breast, adherent, top dose 10 µM)”, the AUC is 0.904 and the IC50 is 9.97 µM.

Take “EW-1 (Ewing sarcoma, semi-adherent, top dose 10 µM)”: the AUC amounted to 0.861 and the IC50 came out at 7.39 µM.

With “EW-3 (Ewing sarcoma, adherent, top dose 10 µM)”, the AUC was 0.721 and the IC50 was 2.94 µM.

For the cell line “EW-7 (Ewing sarcoma, semi-adherent, top dose 10 µM)”, the AUC stood at 0.751 and the IC50 turned out to be 2.95 µM.

For “EW-11 (Ewing sarcoma, adherent, top dose 10 µM)”, the AUC came out at 0.741 and the IC50 came out at 3.83 µM.

For the cell line “EW-13 (Ewing sarcoma, suspension, top dose 10 µM)”, the AUC is 0.947 and the IC50 is more than 10 µM.

For the cell line “EW-16 (Ewing sarcoma, adherent, top dose 10 µM)”, the AUC was 0.863 and the IC50 is 9.31 µM.

With “EW-18 (Ewing sarcoma, suspension, top dose 10 µM)”, the AUC came out at 0.924 and the IC50 is more than 10 µM.

As for “EW-22 (Ewing sarcoma, adherent, top dose 10 µM)”, the AUC came out at 0.701 and the IC50 is 2.24 µM.

In the case of “EoL-1-cell (haematopoietic neoplasm, suspension, top dose 10 µM)”, the AUC was found to be 0.9 and the IC50 is more than 10 µM.

“FADU (head and neck, adherent, top dose 10 µM)”: the AUC stood at 0.893 and the IC50 is more than 10 µM.

Take “FLO-1 (oesophagus, adherent, top dose 10 µM)”: the AUC came out at 0.873 and the IC50 is more than 10 µM.

As to “FTC-133 (thyroid, adherent, top dose 10 µM)”, the AUC stood at 0.806 and the IC50 worked out at 5.71 µM.

In the case of “FU97 (stomach, adherent, top dose 10 µM)”, the AUC worked out at 0.945 and the IC50 was more than 10 µM.

On to “FU-OV-1 (ovary, adherent, top dose 10 µM)”, for which the AUC worked out at 0.934 and the IC50 is more than 10 µM.

As to “Farage (B-cell lymphoma, suspension, top dose 10 µM)”, the AUC is 0.98 and the IC50 was more than 10 µM.

In the case of “G-292 Clone A141B1 (osteosarcoma, adherent, top dose 10 µM)”, the AUC came out at 0.795 and the half-maximal inhibitory concentration (IC50) was 8.35 µM.

In the case of “G-361 (melanoma, adherent, top dose 10 µM)”, the AUC stood at 0.894 and the IC50 was more than 10 µM.

Turning to “G-401 (kidney, adherent, top dose 10 µM)”, the AUC turned out to be 0.85 and the IC50 was found to be 8.74 µM.

Consider “G-402 (soft tissue, adherent, top dose 10 µM)”, for which the AUC was 0.768 and the IC50 is 5 µM.
